Test results: the supplement of paper PMC4604168 (melanoma cell lines)
This is one part of the list. Repeats are few or missing, and single values can be far off.

What was measured:
Assay in all cases: cell count relative to DMSO control; melanoma cells; higher = more viable cells
Settings in all cases: library dose: standard library concentration; 72 h
[1] = system: G361
[2] = system: IPC-298
[3] = system: IST-MEL1
[4] = system: LB2518-MEL
[5] = system: LOXIMVI
[6] = system: MEL-HO
[7] = system: MZ2-MEL
[8] = system: MeWo
[9] = system: RPMI7951
[10] = system: RVH-421
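Note: cells treated in 1,536-well plates, then fixed and DAPI-stained, with nuclei counted from automated high-throughput microscope images.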

| SMILES | cell count [1] | cell count [2] | cell count [3] | cell count [4] | cell count [5] | cell count [6] | cell count [7] | cell count [8] | cell count [9] | cell count [10] |
| --- | --- | --- | --- | --- | --- | --- | --- | --- | --- | --- |
| Cc1ccc(Nc2nccc(N(C)c3ccc4c(C)n(C)nc4c3)n2)cc1S(N)(=O)=O [Pazopanib] + OCCn1cc(-c2cnc3nnn(Cc4ccc5ncccc5c4)c3n2)cn1 [PF04217903] (first compound 2 µM, partner dose 5 µM) | 73.5% | 93% | 100% | 85% | 97.3% | 87.1% | 85.2% | 95.3% | 98.8% | 118% |
| Cc1ccc(Nc2nccc(N(C)c3ccc4c(C)n(C)nc4c3)n2)cc1S(N)(=O)=O [Pazopanib] + COc1ccc(C2=N[C@@H](c3ccc(Cl)cc3)[C@@H](c3ccc(Cl)cc3)N2C(=O)N2CCNC(=O)C2)c(OC(C)C)c1 [Nutlin-3] (first compound 2 µM, partner dose 0.5 µM) | 60.8% | 66% | 97.4% | 60.6% | 52.7% | 95.4% | 60.9% | 91.9% | 59.6% | 83.3% |
| O=C(/C=C/c1cccnc1)NCCCCC1CCN(C(=O)c2ccccc2)CC1 + Oc1nc(-c2ccc(C(F)(F)F)cc2)nc2c1CSCC2 [XAV939] (first compound 0.05 µM, partner dose 10 µM) | 15.7% | 44.3% | 80.5% | 75.4% | 62.1% | 63.4% | 65.2% | 93.1% | 70.5% | 80.5% |
| CC1(C)CCC(c2ccc(Cl)cc2)=C(CN2CCN(c3ccc(C(=O)NS(=O)(=O)c4ccc(N[C@H](CCN5CCOCC5)CSc5ccccc5)c(S(=O)(=O)C(F)(F)F)c4)cc3)CC2)C1 + NC(=O)c1ccc(N(C(N)=O)c2c(F)cccc2F)nc1-c1ccc(F)cc1F [VX702] (first compound 2 µM, partner dose 2 µM) | 88.2% | 79.4% | 78.7% | 65.7% | 33.9% | 59.5% | 83.1% | 77% | 41.1% | 62% |
| Cc1ccc(Nc2nccc(N(C)c3ccc4c(C)n(C)nc4c3)n2)cc1S(N)(=O)=O [Pazopanib] + CC1(C)NC(=O)N(c2ccc([N+](=O)[O-])c(C(F)(F)F)c2)C1=O [nilutamide] (first compound 2 µM, partner dose 5 µM) | 88.2% | 73.6% | 55.2% | 78.9% | 87.2% | 94.3% | 86% | 103% | 109% | 66.9% |
| O=C(/C=C/c1cccnc1)NCCCCC1CCN(C(=O)c2ccccc2)CC1 + Cn1c(=O)n(-c2ccc(C(C)(C)C#N)cc2)c2c3cc(-c4cnc5ccccc5c4)ccc3ncc21 [NVP-BEZ235] (first compound 0.05 µM, partner dose 0.02 µM) | 4.44% | 28.8% | 58.3% | 57.7% | 70.8% | 46.4% | 28.4% | 53.6% | 62.6% | 50.7% |
| Cc1ccc(Nc2nccc(N(C)c3ccc4c(C)n(C)nc4c3)n2)cc1S(N)(=O)=O [Pazopanib] + Cn1cncc1[C@@](N)(c1ccc(Cl)cc1)c1ccc2c(c1)c(-c1cccc(Cl)c1)cc(=O)n2C [tipifarnib] (first compound 2 µM, partner dose 0.05 µM) | 65.5% | 84.6% | 83.6% | 56.6% | 71.8% | 100% | 93.5% | 83.5% | 93.6% | 92.6% |
| O=C(/C=C/c1cccnc1)NCCCCC1CCN(C(=O)c2ccccc2)CC1 + NC(=O)Nc1cc(-c2cccc(F)c2)sc1C(=O)N[C@H]1CCCNC1 [AZD7762] (first compound 0.05 µM, partner dose 0.1 µM) | 3.47% | 22.2% | 59.4% | 32.9% | 56% | 33.6% | 20.5% | 75.6% | 36.3% | 12% |
| O=C(/C=C/c1cccnc1)NCCCCC1CCN(C(=O)c2ccccc2)CC1 + Cn1c(Nc2ccc(C(F)(F)F)cc2)nc2cc(Oc3ccnc(-c4ncc(C(F)(F)F)[nH]4)c3)ccc21 [CHIR265] (first compound 0.05 µM, partner dose 0.4 µM) | 5.28% | 37.5% | 55.8% | 34.8% | 56.5% | 29.6% | 29.4% | 62.5% | 46.5% | 37.3% |
| Cc1ccc(Nc2nccc(N(C)c3ccc4c(C)n(C)nc4c3)n2)cc1S(N)(=O)=O [Pazopanib] + Cc1cc([N+](=O)[O-])ccc1NS(=O)(=O)c1cc(Cl)ccc1Cl [FH535] (first compound 2 µM, partner dose 5 µM) | 21.6% | 38.4% | 55.7% | 74.7% | 51.9% | 52.6% | 52.7% | 53% | 71.2% | 62.3% |
| O=C(/C=C/c1cccnc1)NCCCCC1CCN(C(=O)c2ccccc2)CC1 + COc1ccc(Cl)c(Nc2nc3ccccc3nc2NS(=O)(=O)c2cccc(NC(=O)C(C)(C)N)c2)c1 [XL147] (first compound 0.05 µM, partner dose 4 µM) | 3.18% | 34.2% | 49.2% | 52.6% | 99.4% | 43.3% | 39% | 112% | 92.4% | 32.5% |
| CC1(C)CCC(c2ccc(Cl)cc2)=C(CN2CCN(c3ccc(C(=O)NS(=O)(=O)c4ccc(N[C@H](CCN5CCOCC5)CSc5ccccc5)c(S(=O)(=O)C(F)(F)F)c4)cc3)CC2)C1 + Oc1nc(-c2ccc(C(F)(F)F)cc2)nc2c1CSCC2 [XAV939] (first compound 2 µM, partner dose 10 µM) | 70.8% | 75.8% | 68.3% | 79.2% | 47.2% | 55.8% | 74.8% | 72.8% | 35.6% | 55.5% |
| CC1(C)CCC(c2ccc(Cl)cc2)=C(CN2CCN(c3ccc(C(=O)NS(=O)(=O)c4ccc(N[C@H](CCN5CCOCC5)CSc5ccccc5)c(S(=O)(=O)C(F)(F)F)c4)cc3)CC2)C1 + O=C(O)c1ccc(-c2c[nH]c3ncc(-c4ccccc4)cc23)cc1C1CCCC1 [GSK650394] (first compound 2 µM, partner dose 0.8 µM) | 51.9% | 89.4% | 18.8% | 81% | 48.7% | 50.8% | 90.4% | 80.6% | 33% | 43.4% |
| O=C(/C=C/c1cccnc1)NCCCCC1CCN(C(=O)c2ccccc2)CC1 + C=CCNC1=C2C[C@@H](C)C[C@H](OC)[C@H](O)[C@@H](C)/C=C(\C)[C@H](OC(N)=O)[C@@H](OC)/C=C\C=C(/C)C(=O)NC(=CC1=O)C2=O [Tanespimycin] (first compound 0.05 µM, partner dose 0.01 µM) | 3.95% | 43.8% | 53.6% | 84% | 72.2% | 40.1% | 33.5% | 59.5% | 21.4% | 32.2% |
| CC1(C)CCC(c2ccc(Cl)cc2)=C(CN2CCN(c3ccc(C(=O)NS(=O)(=O)c4ccc(N[C@H](CCN5CCOCC5)CSc5ccccc5)c(S(=O)(=O)C(F)(F)F)c4)cc3)CC2)C1 + CS(=O)(=O)c1ccc(C(=O)Nc2ccc(Cl)c(-c3ccccn3)c2)c(Cl)c1 [vismodegib] (first compound 2 µM, partner dose 5 µM) | 69.4% | 85.3% | 66% | 73% | 44.1% | 57.4% | 73.8% | 77.8% | 29.3% | 82% |
| CC1(C)CCC(c2ccc(Cl)cc2)=C(CN2CCN(c3ccc(C(=O)NS(=O)(=O)c4ccc(N[C@H](CCN5CCOCC5)CSc5ccccc5)c(S(=O)(=O)C(F)(F)F)c4)cc3)CC2)C1 + COc1cc2c(Oc3ccc4[nH]c(C)cc4c3F)ncnc2cc1OCCCN1CCCC1 [cediranib] (first compound 2 µM, partner dose 2 µM) | 89.4% | 126% | 69.4% | 119% | 30% | 67.6% | 103% | 83.2% | 34.1% | 47.4% |
| Cc1ccc(Nc2nccc(N(C)c3ccc4c(C)n(C)nc4c3)n2)cc1S(N)(=O)=O [Pazopanib] + C[C@@H](Oc1cc(-c2cnn(C3CCNCC3)c2)cnc1N)c1c(Cl)ccc(F)c1Cl [Crizotinib] (first compound 2 µM, partner dose 1 µM) | 81% | 70.9% | 93.9% | 67.8% | 102% | 91.5% | 72.9% | 72.1% | 77.7% | 65.9% |
| CC1(C)CCC(c2ccc(Cl)cc2)=C(CN2CCN(c3ccc(C(=O)NS(=O)(=O)c4ccc(N[C@H](CCN5CCOCC5)CSc5ccccc5)c(S(=O)(=O)C(F)(F)F)c4)cc3)CC2)C1 + CC(=O)O[C@@]12CO[C@@H]1C[C@H](O)[C@@]1(C)C(=O)[C@H](O)C3=C(C)[C@@H](OC(=O)[C@H](O)[C@@H](NC(=O)OC(C)(C)C)c4ccccc4)C[C@@](O)([C@@H](OC(=O)c4ccccc4)[C@H]21)C3(C)C [Docetaxel] (first compound 2 µM, partner dose 0.0005 µM) | 7.67% | 27.7% | 6.51% | 22.9% | 17% | 11.2% | 16.3% | 12.3% | 6.72% | 27.6% |
